Experimental data: the RNAGym collection of RNA variant scans (doi:10.7554/elife.90254)
The source gives no read counts; variants with many changes may rest on few reads.

B1: OR4K15 (parent)
chain: GUUAACGGUCAUAGGCCAUGGAAACUAGGAGCACCAUUUCGCUGCCAGUGAAGAAAUGAACAAAGAAAAUCUGGGCCAGGCAGGCAUCAAAAGAAAUAGUCUUGCGCUCAACCAGAAAGUCUGUAAUCAUUUUAAGGGUA

Variants of: B1
Assay: self-cleavage, relative activity (ratio to wild type); higher = more cleavage; in vitro, sequencing; the parent is a self-cleaving ribozyme

Variant | self-cleavage
GUUAACGGUCAUAGGCCAUGGAAACUAGGAGCACCAUUUCGCUGCCAGUGAAGAAAUGGACAAAGAAAAUCUGGGCCAGGCAGGCAUCAAAGGAAAUAGUCUUGCGCCCAACCAGAAAGUCUGUAAUCAUUUUAAGGGUA | 0.01
GUCAACGGUCGUAGGCCAUGGAAGCUAGGAGCACCAUUUCGCUGCCAGUGAAGGAAUGAACAAAGAAAACCUGGGCCAGGCAGGCAUCAAAAGAAAUAGUCUUGCGCUCAACCAGAAAGUCUGUAAUCAUUUUAAGGGUA | 0.98
GUUAACGGUCAUAGGCCAUGGAGACUAGGAGCACCAUUUCGCUGCCAGUGAAAAAAUGAACAAAGAAAAUCUGGGCCAGGCAGGCAUCAAUAGAAAUAGUCUUGCGCUCAACCAGAAAGUCUGUAAUCAUUUUAAGGGUA | 1.49
GCUAACGGUCAUAGGCCAUGGAAACUAGGAGCACCAUUUCGCUGCCAGUGAAGAAAUGAACAAAGAAAAUCUGGGCCAGGCAGGCAUCAAAAGAAAUAGUCUUGCGCUCAACCCGAAAGUCUGUAACCAUUUUAAGGGUA | 0.04
GCUAACGGUUAUAGGCCAUGGAAGCUAGGAGCACCAUUUCGCUGCCAGUGAAGAAAUGAACAAAGAAAAUCUGGGCCAGGCAGGCAUCAAAAGAAAUAGUCUUGCGCUCAACCAGAAAGUCCGUAAUCGUUUUAAGGGUA | 0.58
GCUAACGGUCAUAGGCCAUGGAAACUAGGAGCACCAUCUCGCUGCCAGUGAAGAAAUGGACAAAGAAAAUCUGGGCCAGGCAGGCAUCAAGGGAAAUAGUCUUGCGCUCAACCAGAAAGUCUGUAAUCAUUUUAAGGGUA | 0
GUUAACGGUCGUAGGCCAUGGAGACUAGGAGCACCAUUUUGCUGCCAGUGAAGAAAUGAACAAAGAAAAUCUGGGCCAGGCAGGCAUCAAAAGAAAUAGUCUUGCGCUCAACCAGAAAGUCUGUAAUCAUUUUAAGGGUA | 1.15
GUUAACGGUCACGGGCCAUGGAAACUAGGAGCGCCAUUUCGCUGCCAGUGAAGAAAUGAACAAAGGAAAUCUGGGCCAGGCAGGCAUCAAAAGAAAUAGUCUCGCGCUCAACCAGGAAGUCUGUAAUCAUUUUAGGGGUA | 0.09
GUUAACGGUCAUAGGCCAUGGAAACUAGGAGCACCAUUUCGCUGCCAGUGAGGAAAUGAACAAAGAAAAUCUGGGCCAGGCAGGCAUCAGAAGAGAUAGUCUUGCGCUCAAUCAGAAAGUCUGUAAUCAUUUUAAGGGUA | 0.03
GUUAACGGUCAUAGGCCAUGGAAACUAGGAGCACCAUUUCGCUGCCGGUGAGGAAAUGAACAAAGAAAAUCUGGGCCAGGCGGGCAUCAAAAGAAAUAGUCUUGCGCUCAACCAGAAAGUCUGUAAUCAUCUUAAGGGUA | 0.24
GUUAACGGUCAUAGGCCAUGGAAACUAGGGGCACCAUUUCGCUGCCAGUGAGGAAAUGAAUAAAGAAAAUCAGGGCCAGGCAGGCAUCAAAAGAAAUAGUCUUGCGCUCAACCAGAAAGUCUGUAAUCAUUUUAAGGGUA | 0.38
GUUAACGAUCAUAGACCAUGGAAACUAGGAGCACCAUUUCGCUGCCAGUGAAGAAAUGAACAAAGAAGAUCUGGGCCAGGCAGGCAUCAAGAGAAAUAGUCUUGCGCUCAACCAGGAAGUCUGUAAUCAUUUUAAGGGUA | 0.23
GUUAACGGUCAUAAGCCAUGGAAGCUAGGAGCACCAUUUCGCUGCCAGUGAAGAAAUGAACGAAGAAAAUCUGGGCCAGGAAGGCAUCAAAAGAAAUAGCCUUGCGCUCAACCAGAAAGUCUGUAAUCAUUUUAUGGGUA | 0.21
GUUAACGGUCAUAGGCCAUGGAGACUAGGAGCACCGUUUCGCUGCCAGUGAAGAAAUGAACAAAGAAAACCUGGGCCAGGCAGGCAUCAAAAGAAAUAGUCUUGCGCUCAACCAGAAAGUCUGUAAUCAUUUUAAGGGUA | 0.6
GUUAACGGUCAUAGGCCAUGGAAACUAGGAGCACCAUUUCGCUGCCAGUGGAGAAAUGAACAAAGAAAAUCUGGGCCAGACAGGCAUCAAAAGAAAUAGUCUUGCGCCCAACCAGAAAGUCUGUAAUCAUUUUAAGGGUA | 0.02
GUUAACGGUCAUAGGCCAUGGAAACUUGGAGCACCAUUUCGCUGCCAGUGAGGAAAUGAACAGAGAAGAUCUGGGCCAGACAGGCAUCAAAAGAAAUAGUCUUGCGCUCAACCAGAAAGUCUGUAAUCAUUUUAAGGGUA | 0.27
GUUAACGGUCAUAGGCCAUGGAAACUAGGAGCACCAUUUCGCUGCCUGUGAAGAAAUGAACAGAGAGAAUCUGGGCCGGGCAGGCAUCAAAAGAAAUAGCCUUGCGCUCAACCAGAAAGUCUGUAGUCAUCUUAAGGGUA | 0.08
GUUAACGGUCAUAGGCCAUGGAAACUAGGAGCACCAUUUCGCUGCCAGUGUAGAAAUGAACAAGGAAAAUCUGGGCCAGGCAGGCAUCAAAAGAAAUAGUCUUGCGCUCAACCAGGAAGUCUGUAAUCAUUUUAAGGGUA | 1.38
GUUAACGGUCAUAGGCCAUGGAAACUAGGAGCACCAUUUCGCUGCCAGCGAAGAAAUGAACAAAGGAAAUCUGGGCCAGGCAGGCAUCAGAAGAAAUAGUCUUGCGCUCAACCAGAAAGUCUGUAAUCACUUUAAGGGUA | 0.12
GUUAACGGCCAUAGGCCACGGAAGCUAGGAGCACCAUUUCGCUGCCAGUGAAGAAAUGAGCAAAGAAAAUCUGGGCCAGGCAGGCAUCAAAAGGAAUAGUCUUGCGCUCAACCAGAAAGUCUGUAAUCAUUUUAAGGGUA | 1.02
GUUAACGGUCAUAGGCCAUGGAAACUAGGAGCACCAUUUCGCUGCCAGUGAAGAAAUGAACAAAGAAAAUCUGGGCCGGGCAGGCAUCAAAAGAAAUAGUCUUGCGCCCAACCAGGAAGUCUGUGAUCAUUUUAAGGGUA | 0.02

Variant | self-cleavage
GUUAACGGCCAUAGGCCAUGGAAACUAGGAGCACCAUUUCGCUGCCAGUGGAGAAAUGAACAAAGAAGAUCUGGGCCAGGCAGGCAUCAAAAGAAAUAGUCUUGCGCUCAACCGGAAAGUCUGUAAUCAUUUUGAGGGUA | 0.43
GCUAACGGUCAUAGGCCAUGGAAACUAGGAGCACCUUUUCGCUGCCGGCGAAGAAAUGAACAAAGAAAAUCUGGGCCAGGCAGGCAUCAAAGGGAAUAGUCUUGCGCUCAACCAGAAAGUCUGUAAUCAUUUUAAGGGUA | 0.31
GUUAACGGUCAUAGGCCUCGGAAACUAGGAGCGCCAUUUCGCUGCCAGUGAAGAAAUGAACAAAGAAAAUCUGGGCCAGGCAGGCAUCAAAAGAAAUAGUCUUGCGCUCAACCAGAAAGUCUGUAAUCAUUUUAAGGGUA | 1.02
GUUAACGGUCAUAGGCCAUGGAAACUAGGAGCACCACUUCGCAGCCAGUGAAGAAAUGAACAAAGAAAAUCUGGGCCAGGCAGGCAUCAAAAGAAAUAGUCUUGCGCUCAACCAGAAAGUCUGUAAUCAUUUUACGGGUA | 1.82
GUUAACGGUCAUAGGCCAUGGAAACUAGGAGCACCAUUUCGCUGCCAGUGAAGAAAUGAACAAAGAAAGUCUGGGCCAGGCGGGCAUCAAAAGAAAUAGUCUUGCGCUCAACCAGAAAGUCCGUAAUCAUUUUAAGGGUA | 0.18
GUUAACGGUCAUAGGCCAUGGAAACUAGGAGCACCAUUUCGCUGCCAGUGAAGAAAUGAACAAAGAAAAUCUGUGCCAGGCAUGCAUCAGAAGAAAUAGUCUUGCGCUCAACCAGAAAGUCUGUAUUCAUUUUAAGGGUA | 0.16
GUCAACGGUCAUAGGCCAUGGAAGCUAGGAGCACCAUUUCGCUGCCAGUGAAGUAAUGAACAAAGAAAAUCUUGGCCAGGCAGGCAUCAAAAGAAAUAGUCUUGCGCUCAACCAGAAAGUCUGUAAUCAUUUUAAGGGUA | 0.18
GUUAGCGGUCAUUGGCCAUGGAAACUAGGAGCACCAUUUCGCUGCCAGUGAAGAAAUGAACAAAGAACAUCUGGGCCAGGCAGGCAUCAAAAGAAAUAGUCUUGCGCUCAACCAGAAAGUCUGUAGUCAUUUUAAGGGUA | 0.47
GUUAACGGUCAUAGGCCAUGGAAACUAGGAGCACCACUUCGCUGCCAGUGAAGAAGUGAGCAAAGAGAAUCUGGGCCAGGCAGGCAUCAAAAGAAAUAGUCUUGCGCUCAACCAGAAAGUCUGUAAUCAUUUUAAGGGUA | 0.81
GUUAACGGUCAUAGGCCGUGGAAACUAGGAGCACCAUUUCGCUGCCAGUGAAGAAAUGAACAAAGAAAAUCUGGGCCAGGCAGGCAUCAAAAGAAAUAGUCUCGCGCUCAACCAGAAAGUCUGUAAUCAUUUUGAGGGUA | 0.46
GUUAACGGUCGUAGGCCAUGGAAACUAGGAGCACCAUUUCGCUGCCAGUGAAGAAAUGAACAAAGAGAAUCUGGGCCAGGCAGGCAUCAAAAGAAAUAGUCUUGCGCUAAACCAGAAAGUCUGUAAUCAUUCUAAGGGUA | 0.17
GUUAACGGUCAUAGGCCAUGGAAACUAGGAGCACCAUUUCGCUGCCAGUGAAGAAAUGAACAAAGAAAAUCUGGGACAGGCAGGCAUCAAAAGAAAUAGUCUUGCGCUCGACCAGAGAGUCUGUAAUCAUUUUAAGGGUA | 0.04
GUUAACGGUAAUAGGCCAUGGAUACUAGGAGCACCAUUUCGCUGCCAGUGAAGAAAUGAACAAAGAAAAUCUGGGCCAGGCAGGCAUCGAAAGAAAUAGUCUUGCGCUCAACCAGAAAGUCUGUAAUCAUUUUAAGGGUA | 1.7
GUUAACGGUCGUAGGCCAUGGAAGCUAGGAGCACCAUUUCGCUGCCAGUGAAGAAAUGAACAAAGAAAAUCUGGGCCUGGCAGGCGUCAAAAGAAAUAGUCUUGCGCUCAACCAGAAAGUCUGUAAUCAUUUUAAGGGUA | 0.29
GUUAACGGUCAUAGGCCAUGGAAACUAGGAGCACCCUUUCGCUGCCAGUGAAGAAAUGAACAAAGAAAAUCUGGGCCAGGCAGGCAUCAAAAGAAAUAGUCUUGCGCUCAACCAGGAAGUCUGUAUUCAUUUUAAGGGUA | 1.27
GUUAACGGUCAUAGGCCAUGGGAACUAGGUGCACCAUUUCGCUGCCAGUGAAGAAAUGAACAAAGAAAAUCUGGGCCAGGCAGGCAUCAAAAGAAAUAGUCUUGCGCCCAACCAGAAAGUCUGUAAUCAUUUUAAGGGUA | 0.06
GUUAACGGUCAUAGGCCCUGGAGACUAGGAGCACCAUCUCGCUGCCAGUGAAGAAAUGAACAAAGAAAAUCUGGGCCAGGCAGGCAUCAAAAGAAAUAGUCUUGCGCUCAACCAGAAAGUCUGUAAUCAUUUUAAGGGUA | 0.13
GUUAACGGUCAUAGGCCGUGGAAACUAGGAGCGCCAUUUCGCCGCCAGUGAAGAAAUGAACAAAGAGAAUCUGGGCCCGGCAGGCAUCAAAAGAAAUAGUCUUGCGCCCAACCAGAAAGUCUGUAAUCAUUUUAAGGGUA | 0.01
GUUAACGGUCAUAGGCCAUGGAAACUAGGAGCACCAUUUCGCCGCCAGUGAAGAAAUGAACAGAGAAAAUCUGGGCCAGGCAGGCAUCAAAAGAAACAGUCUUGCGCUCAACCAGAAAGUCUGUAAUCAUUUUAAGGGUA | 1.65
UUUAACGGUCAUAGGCCAUGGAAACUAGGAGCACCAUUUCGCUGCCAGUGAAGAAAUGAACAAAGAAAAUCUGGGCCAGGCAGGCAUCAGAAGAAAUGGCCUUGCGCUCAACCAGAAAGUCUGCAAUCAUUUUAAGGGUA | 0.38
